# Laboratory results: the supplement of paper PMC8728848
# The list shows a part of the results.
# Legend:
# Assay in all cases: glycan array binding signal (z-score within array); higher = stronger binding
# Settings in all cases: glycan notation: IUPAC condensed, linker removed
# [1] = biological target: GlcNAc(b1-4)GlcNAc(b1-4)GlcNAc(b1-4)GlcNAc(b1-4)GlcNAc(b1-4)GlcNAc
# Procedure, shortened: (§1)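 Columns mapping to the same glycan were averaged after glycan names were converted to IUPAC-condensed notation. The data come from 3228 arrays in the Consortium for Functional Glycomics database, limited to those with an available protein sequence. Binding is reported as a within-array Z-score averaged across arrays of one protein sequence and across linkers.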
# [2] = biological target: GlcNAc(b1-4)[GlcNAc(b1-6)]GalNAc
# Procedure, shortened: as §1
# [3] = biological target: GlcNAc(b1-6)Gal(b1-4)GlcNAc
# Procedure, shortened: as §1
# GlcNAc(b1-6)GalNAc = biological target: GlcNAc(b1-6)GalNAc
# Procedure, shortened: as §1
# [4] = biological target: GlcNAc6S(b1-3)Gal(b1-4)GlcNAc
# Procedure, shortened: as §1
# Kdn(a2-3)Gal(b1-3)GalNAc = biological target: Kdn(a2-3)Gal(b1-3)GalNAc
# Procedure, shortened: as §1
# Kdn(a2-3)Gal(b1-3)GlcNAc = biological target: Kdn(a2-3)Gal(b1-3)GlcNAc
# Procedure, shortened: as §1
# Kdn(a2-3)Gal(b1-4)Glc = biological target: Kdn(a2-3)Gal(b1-4)Glc
# Procedure, shortened: as §1
# Kdn(a2-3)Gal(b1-4)GlcNAc = biological target: Kdn(a2-3)Gal(b1-4)GlcNAc
# Procedure, shortened: as §1
# [5] = biological target: Kdn(a2-3)Gal(b1-4)[Fuc(a1-3)]GlcNAc
# Procedure, shortened: as §1
# Kdn(a2-6)Gal(b1-4)GlcNAc = biological target: Kdn(a2-6)Gal(b1-4)GlcNAc
# Procedure, shortened: as §1
# [6] = biological target: Man(a1-2)Man(a1-2)Man(a1-3)Man
# Procedure, shortened: as §1
# [7] = biological target: Man(a1-2)Man(a1-2)Man(a1-6)[Man(a1-3)]Man
# Procedure, shortened: as §1
# Man(a1-2)Man(a1-3)Man = biological target: Man(a1-2)Man(a1-3)Man
# Procedure, shortened: as §1
# [8] = biological target: Man(a1-2)Man(a1-3)[Man(a1-2)Man(a1-6)]Man
# Procedure, shortened: as §1
# [9] = biological target: Man(a1-2)Man(a1-3)[Man(a1-2)Man(a1-6)]Man(a1-6)[Man(a1-2)Man(a1-2)Man(a1-3)]Man
# Procedure, shortened: as §1
# [10] = biological target: Man(a1-2)Man(a1-3)[Man(a1-2)Man(a1-6)]Man(a1-6)[Man(a1-2)Man(a1-2)Man(a1-3)]Man(b1-4)GlcNAc(b1-4)GlcNAc
# Procedure, shortened: as §1
# [11] = biological target: Man(a1-2)Man(a1-3)[Man(a1-6)]Man(a1-6)[Man(a1-2)Man(a1-3)]Man(b1-4)GlcNAc(b1-4)GlcNAc
# Procedure, shortened: as §1
# [12] = biological target: Man(a1-2)Man(a1-6)[Man(a1-3)]Man(a1-6)[Man(a1-2)Man(a1-2)Man(a1-3)]Man
# Procedure, shortened: as §1
# [13] = biological target: Man(a1-2)Man(a1-6)[Man(a1-3)]Man(a1-6)[Man(a1-2)Man(a1-2)Man(a1-3)]Man(b1-4)GlcNAc(b1-4)GlcNAc
# Procedure, shortened: as §1
# Man(a1-3)[Man(a1-6)]Man = biological target: Man(a1-3)[Man(a1-6)]Man
# Procedure, shortened: as §1
# [14] = biological target: Man(a1-3)[Man(a1-6)]Man(a1-6)[Man(a1-2)Man(a1-3)]Man(b1-4)GlcNAc(b1-4)GlcNAc
# Procedure, shortened: as §1
# [15] = biological target: Man(a1-3)[Man(a1-6)]Man(a1-6)[Man(a1-3)]Man
# Procedure, shortened: as §1
# [16] = biological target: Man(a1-3)[Man(a1-6)]Man(a1-6)[Man(a1-3)]Man(b1-4)GlcNAc(b1-4)GlcNAc
# Procedure, shortened: as §1
# [17] = biological target: Man(a1-3)[Man(a1-6)]Man(b1-4)GlcNAc(b1-4)GlcNAc
# Procedure, shortened: as §1
# [18] = biological target: Man(a1-3)[Man(a1-6)]Man(b1-4)GlcNAc(b1-4)[Fuc(a1-6)]GlcNAc
# Procedure, shortened: as §1
# Man(a1-6)Man = biological target: Man(a1-6)Man
# Procedure, shortened: as §1
# Man(b1-4)GlcNAc = biological target: Man(b1-4)GlcNAc
# Procedure, shortened: as §1
# MurNAc(b1-4)GlcNAc = biological target: MurNAc(b1-4)GlcNAc
# Procedure, shortened: as §1
# Neu5Ac(a2-3)Gal = biological target: Neu5Ac(a2-3)Gal
# Procedure, shortened: as §1
# [19] = biological target: Neu5Ac(a2-3)Gal(b1-3)GalNAc
# Procedure, shortened: as §1
# [20] = biological target: Neu5Ac(a2-3)Gal(b1-3)GalNAc(b1-3)Gal(a1-4)Gal(b1-4)Glc
# Procedure, shortened: as §1
# [21] = biological target: Neu5Ac(a2-3)Gal(b1-3)GalNAc(b1-4)[Neu5Ac(a2-3)]Gal(b1-4)Glc
# Procedure, shortened: as §1
# [22] = biological target: Neu5Ac(a2-3)Gal(b1-3)GalNAc(b1-4)[Neu5Ac(a2-8)Neu5Ac(a2-3)]Gal(b1-4)Glc
# Procedure, shortened: as §1
# [23] = biological target: Neu5Ac(a2-3)Gal(b1-3)GalNAc6S
# Procedure, shortened: as §1
# [24] = biological target: Neu5Ac(a2-3)Gal(b1-3)GlcNAc
# Procedure, shortened: as §1
# [25] = biological target: Neu5Ac(a2-3)Gal(b1-3)GlcNAc(b1-2)Man
# Procedure, shortened: as §1
# [26] = biological target: Neu5Ac(a2-3)Gal(b1-3)GlcNAc(b1-2)Man(a1-3)[GlcNAc(b1-4)][Neu5Ac(a2-3)Gal(b1-3)GlcNAc(b1-2)Man(a1-6)]Man(b1-4)GlcNAc(b1-4)GlcNAc
# Procedure, shortened: as §1
# [27] = biological target: Neu5Ac(a2-3)Gal(b1-3)GlcNAc(b1-2)Man(a1-3)[Neu5Ac(a2-3)Gal(b1-3)GlcNAc(b1-2)Man(a1-6)]Man(b1-4)GlcNAc(b1-4)GlcNAc
# Procedure, shortened: as §1
# [28] = biological target: Neu5Ac(a2-3)Gal(b1-3)GlcNAc(b1-3)Gal(b1-3)GlcNAc
# Procedure, shortened: as §1
# [29] = biological target: Neu5Ac(a2-3)Gal(b1-3)GlcNAc(b1-3)Gal(b1-4)GlcNAc
# Procedure, shortened: as §1
# [30] = biological target: Neu5Ac(a2-3)Gal(b1-3)GlcNAc(b1-3)GalNAc
# Procedure, shortened: as §1
# [31] = biological target: Neu5Ac(a2-3)Gal(b1-3)GlcNAc(b1-4)Gal(b1-4)Glc
# Procedure, shortened: as §1
# [32] = biological target: Neu5Ac(a2-3)Gal(b1-3)GlcNAc(b1-6)GalNAc
# Procedure, shortened: as §1
# [33] = biological target: Neu5Ac(a2-3)Gal(b1-3)GlcNAc6S
# Procedure, shortened: as §1
binder,measurement,setting,value
EULS2 M4 (Oryza sativa) (protein) MVYCRANPNYAMTARNGAVVLAPANPKDEYQHWIKDMRWSTSIKDEEGYPAFALVNKATGQAIKHSLGQSHPVRLVPYNPEVMDESVLWTESRDVGNGFRCIRMVNNIYLNFDAFHGDKYHGGVRDGTDIVLWKWCEGDSLRWKIQPYYILEQKLISEEDLNSAVDHHHHHH,glycan array binding signal (z-score),[1],-0.23
same,glycan array binding signal (z-score),[2],0.115
same,glycan array binding signal (z-score),[3],-0.589
same,glycan array binding signal (z-score),GlcNAc(b1-6)GalNAc,-0.405
same,glycan array binding signal (z-score),[4],-0.436
same,glycan array binding signal (z-score),Kdn(a2-3)Gal(b1-3)GalNAc,-0.641
same,glycan array binding signal (z-score),Kdn(a2-3)Gal(b1-3)GlcNAc,-0.378
same,glycan array binding signal (z-score),Kdn(a2-3)Gal(b1-4)Glc,-0.413
same,glycan array binding signal (z-score),Kdn(a2-3)Gal(b1-4)GlcNAc,-0.2
same,glycan array binding signal (z-score),[5],-0.169
same,glycan array binding signal (z-score),Kdn(a2-6)Gal(b1-4)GlcNAc,-0.451
same,glycan array binding signal (z-score),[6],-0.573
same,glycan array binding signal (z-score),[7],0.149
same,glycan array binding signal (z-score),Man(a1-2)Man(a1-3)Man,-0.18
same,glycan array binding signal (z-score),[8],-0.33
same,glycan array binding signal (z-score),[9],-0.397
same,glycan array binding signal (z-score),[10],-0.4
same,glycan array binding signal (z-score),[11],-0.525
same,glycan array binding signal (z-score),[12],0.403
same,glycan array binding signal (z-score),[13],-0.414
same,glycan array binding signal (z-score),Man(a1-3)[Man(a1-6)]Man,-0.459
same,glycan array binding signal (z-score),[14],-0.395
same,glycan array binding signal (z-score),[15],-0.216
same,glycan array binding signal (z-score),[16],-0.494
same,glycan array binding signal (z-score),[17],0.007
same,glycan array binding signal (z-score),[18],0.181
same,glycan array binding signal (z-score),Man(a1-6)Man,0.713
same,glycan array binding signal (z-score),Man(b1-4)GlcNAc,-0.475
same,glycan array binding signal (z-score),MurNAc(b1-4)GlcNAc,-0.576
same,glycan array binding signal (z-score),Neu5Ac(a2-3)Gal,0.18
same,glycan array binding signal (z-score),[19],-0.341
same,glycan array binding signal (z-score),[20],-0.448
same,glycan array binding signal (z-score),[21],-0.469
same,glycan array binding signal (z-score),[22],-0.527
same,glycan array binding signal (z-score),[23],0.008
same,glycan array binding signal (z-score),[24],-0.043
same,glycan array binding signal (z-score),[25],-0.472
same,glycan array binding signal (z-score),[26],-0.281
same,glycan array binding signal (z-score),[27],-0.345
same,glycan array binding signal (z-score),[28],-0.262
same,glycan array binding signal (z-score),[29],-0.06
same,glycan array binding signal (z-score),[30],-0.188
same,glycan array binding signal (z-score),[31],-0.751
same,glycan array binding signal (z-score),[32],0.11
same,glycan array binding signal (z-score),[33],0.416
